In PubChem BioAssay AID995 (National Center for Advancing Translational Sciences (NCATS), 2007):
In all, about 72,000 compounds went through this assay and about 710 (0.99%) were called active. The inconclusive results got no clear call from the source; some entries with a clear call stand among them for comparison. Calls follow the shape of the dose curve; as a rule, active = well fitted inhibition curve with a large enough effect; inconclusive = small, poorly fitted or top-dose-only effect; inactive = no such curve, though single readings can be large or run the other way. Where the call is inconclusive, the potency comes from a doubtful curve fit.

Test: qHTS Assay for Inhibitors of the ERK Signaling Pathway using a Homogeneous Screening Assay; also: nearly all actives have a fitted effect of over 55% in size
Conditions: HEK293-V1b, vasopressin-stimulated pERK AlphaScreen; activity, negative = inhibition: at 57.5 µM (top of the series) unless noted
Summary of the method: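 Overnight-seeded V1b-HEK293 cells in 1% FBS got compound, then vasopressin (25 nM final, 5 min, 37C), then lysis buffer. AlphaScreen detection of phospho-ERK; activity normalized to basal and full-stimulation controls.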
% is scaled to controls: 0 for no effect and ±100 for the full control effect; potency is read from the fitted curve at half-maximal effect; tags tell the direction and shape of the fitted curve.

Potency, active:
O=C(CSc1nnc(-c2cccs2)n1Cc1ccco1)c1ccc2c(c1)OCO2 31.6 µM
COc1ccc(C(=O)c2cn[nH]c2-c2cc(Cl)ccc2O)cc1 39.8 µM
O=C(CSc1nc2ccccc2c(=O)[nH]1)c1ccc(O)c(O)c1 15.8 µM
CSc1ncnc2c1ncn2CC(=O)[C@H]1CC[C@H]2[C@H]3CCC4=CC(=O)CC[C@@]4(C)[C@@H]3CC[C@@]12C 3.98 µM

Potency, inconclusive:
COc1cccc(-c2nc(CS(=O)(=O)CC(=O)N3CCN(c4ccccn4)CC3)c(C)o2)c1 12.6 µM [inhibitor, partial curve]
Cn1c(=O)n(C)c2cc(S(=O)(=O)NCCc3ccccc3)ccc21 0.316 µM [inhibitor, full curve]
OC(CN1CCN(c2ccccn2)CC1)Cn1c2ccccc2c2ccccc21 (centres undefined) 31.6 µM [inhibitor, single point]
O=C(O)CCCNS(=O)(=O)c1ccc(Br)s1 0.1 µM [inhibitor, full curve, poor fit]
Cc1c(Cl)cccc1NC(=O)C[C@H]1Sc2ccccc2NC1=O 1 µM [inhibitor, single point]
CCOC(=O)/C(C#N)=C1/SC(CC)C(=O)N1c1ccc(C)cc1 (centres undefined) 25.1 µM [inhibitor, single point]
Cc1ccc2nc(N3CCN(Cc4nnnn4Cc4ccccc4)CC3)c(C#N)cc2c1 3.16 µM [inhibitor, partial curve]
Clc1ccccc1-c1nn2c(-c3ccncc3)nnc2s1 20 µM [inhibitor, partial curve]
COc1ccccc1CNc1cc(-c2ccccc2C(F)(F)F)ncn1 20 µM [inhibitor, partial curve]
Cn1cccc1-c1nc2ccc(NC(=O)c3ccccc3)cc2[nH]1 12.6 µM [inhibitor, partial curve]
c1cncc(Nc2nc(-c3cccnc3)cs2)c1 20 µM [inhibitor, partial curve]
CCn1c(NC(=O)c2cccc(Cn3cc(Cl)cn3)c2)nc2ccccc21 12.6 µM [inhibitor, partial curve]
CCOc1ccc(/C=c2\sc3nc(-c4ccco4)nn3c2=O)cc1OCC 2.51 µM [inhibitor, full curve, poor fit]
COC(=O)c1ccccc1NC(=O)CN1CCC(C(=O)c2ccc3c(c2)OCCO3)CC1 15.8 µM [inhibitor, partial curve]
Cc1ccc(NC(=O)N2CCC(c3nc4c(nnn4Cc4cccc(Cl)c4)c(=O)[nH]3)CC2)cc1 39.8 µM [inhibitor, single point]
CCCCCn1c(Sc2nc3ccccc3s2)nc2c1c(=O)[nH]c(=O)n2C 7.94 µM [inhibitor, partial curve]
CCOC(=O)C1CCCN(c2ncnc3c2cnn3-c2ccc(Cl)cc2)C1 (centres undefined) 31.6 µM [inhibitor, single point]
Cc1sc2c(=O)n3c(nc2c1C(=O)NCCCN1CCOCC1)CCCCC3 7.94 µM [inhibitor, partial curve, poor fit]
CCCN1C(=O)c2cc(C(=O)NCc3ccc(OC)cc3)ccc2C1O (centres undefined) 7.94 µM [inhibitor, partial curve]
Cn1c(=O)c2c(nc(SCCN3CCOCC3)n2Cc2ccccc2)n(C)c1=O 15.8 µM [inhibitor, single point]
CCCn1c(N)c(C(=O)CSc2nnc(Cc3ccccc3)o2)c(=O)n(C)c1=O 12.6 µM [inhibitor, partial curve]
COc1ccc(NC(=O)CSc2ncn(-c3ccccc3)n2)cc1Cl 15.8 µM [inhibitor, single point]
Fc1c(F)c(F)c(CSc2nc3ccccc3[nH]2)c(F)c1F 39.8 µM [inhibitor, single point]
CC1(C(=O)NCCCNc2ncc(C(F)(F)F)cc2Cl)C=CC2(CCCCC2)N1C(=O)c1ccccc1 (centres undefined) 39.8 µM [inhibitor, single point]
COC(=O)c1cccc(NC(=O)Cc2coc3cc(OC)ccc23)c1 31.6 µM [inhibitor, single point]
O=c1cnc2cnc(Nc3ccccc3)nc2n1Cc1ccc(F)cc1 0.794 µM [inhibitor, full curve]
COC(=O)c1sccc1NC(=O)CN1CCN(c2ccc(F)cc2)CC1 10 µM [inhibitor, partial curve]

activity, negative = inhibition, inactive:
COc1ccc(Oc2ncc3nc(-c4cc(F)cc(F)c4)c(=O)n(C4CC4)c3n2)cc1 -28.9%
Cc1ccc(NC(=O)c2cccc(N(C)C)c2)cc1NC(=O)c1ccc(O)cc1 -23%
O=C(c1cnn2c(C(F)(F)F)cc(-c3ccccc3)nc12)N1CCOCC1 -2.82%
COCCN(C(=O)Cn1nnc2ccccc21)C(C(=O)NC1CCCC1)c1cccc(OC)c1OC (centres undefined) 4.8%
CCc1ccc2c(-c3cccc(Cl)c3)nc(=O)n(CC)c2n1 -27.8%
COc1ccccc1NC(=O)c1oc2ccccc2c1NC(=O)c1cc(OC)c(OC)c(OC)c1 20.7%
Oc1ccc(COCc2ccccc2)c2cccnc12 -26.9%
CC(C)C(NC(=O)C1CCCCC1)C(=O)Nc1ccc2c(c1)OCCO2 (centres undefined) 16.4%
Cc1cc2c(c(=O)n1Cc1cccnc1)C(Cc1ccccc1)C(C#N)=C(N)O2 (centres undefined) -20.4%
CC(C)(C)OC(=O)[C@H]([C@@H]1N[C@@H](C(=O)O)C(C)(C)S1)N1C(=O)c2ccccc2C1=O 8.13% [at 11.5 µM]
Cc1ccc(OCC(=O)Nc2ccc3c(c2)nc(CCN2CCOCC2)n3C)cc1 -2.78%
COCCn1c(C)cc(C(=O)COC(=O)C23CC4CC(CC(O)(C4)C2)C3)c1C 14.6%
CN1CCc2c(sc(/N=C/c3cccs3)c2C(N)=O)C1 -2.63%
